Here are results for 44 molecules from PMC4336329 (PLoS ONE, 2015).

Hit rate of the full screen: of about 310,000 compounds, about 2,200 (0.71%) showed an effect of 50% or more. Effects have a minus sign here. Some of the results follow.

The target of this assay is human ether-à-go-go-related gene (hERG) potassium channel (human, UniProt Q12809). Description: primary screen, population patch clamp on CHO cells stably expressing hERG.
Chain of human ether-à-go-go-related gene (hERG) potassium channel (Q12809 whole entry, looked up): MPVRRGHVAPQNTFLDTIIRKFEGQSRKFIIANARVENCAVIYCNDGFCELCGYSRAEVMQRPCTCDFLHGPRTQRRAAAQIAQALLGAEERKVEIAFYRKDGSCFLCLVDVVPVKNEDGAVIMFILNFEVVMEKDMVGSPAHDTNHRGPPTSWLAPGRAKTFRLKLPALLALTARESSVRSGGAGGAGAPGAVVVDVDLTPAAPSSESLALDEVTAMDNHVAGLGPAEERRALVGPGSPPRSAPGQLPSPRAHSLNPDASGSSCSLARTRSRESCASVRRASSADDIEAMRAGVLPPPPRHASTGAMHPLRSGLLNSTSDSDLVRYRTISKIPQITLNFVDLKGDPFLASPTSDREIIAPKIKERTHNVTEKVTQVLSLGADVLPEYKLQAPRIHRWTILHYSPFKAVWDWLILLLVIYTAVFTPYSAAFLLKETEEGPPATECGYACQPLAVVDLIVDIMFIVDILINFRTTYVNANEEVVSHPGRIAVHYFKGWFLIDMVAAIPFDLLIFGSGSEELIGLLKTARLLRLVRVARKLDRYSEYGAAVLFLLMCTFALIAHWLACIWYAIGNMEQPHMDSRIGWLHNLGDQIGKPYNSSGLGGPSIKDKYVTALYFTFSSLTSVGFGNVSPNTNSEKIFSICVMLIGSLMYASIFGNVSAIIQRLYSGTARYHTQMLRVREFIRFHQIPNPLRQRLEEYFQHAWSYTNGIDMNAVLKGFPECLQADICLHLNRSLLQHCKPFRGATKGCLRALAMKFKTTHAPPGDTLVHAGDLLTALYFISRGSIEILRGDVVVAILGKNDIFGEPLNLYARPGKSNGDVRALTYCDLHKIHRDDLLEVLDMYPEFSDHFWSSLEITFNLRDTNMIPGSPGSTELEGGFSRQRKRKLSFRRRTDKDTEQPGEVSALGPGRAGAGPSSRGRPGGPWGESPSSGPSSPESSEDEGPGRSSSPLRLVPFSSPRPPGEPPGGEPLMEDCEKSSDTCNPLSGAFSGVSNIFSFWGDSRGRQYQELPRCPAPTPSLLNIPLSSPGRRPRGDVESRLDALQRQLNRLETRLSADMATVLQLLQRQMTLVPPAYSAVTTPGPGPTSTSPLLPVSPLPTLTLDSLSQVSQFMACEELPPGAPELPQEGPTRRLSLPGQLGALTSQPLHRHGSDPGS
As for `COc1cc(/C=N/n2c(SC)nnc(C(C)(C)C)c2=O)ccc1O`, the “hERG current change (%, negative = inhibition) at 1uM” value turned out to be 2.9%.
The value for `COc1ccc(C(=O)NC(=O)COC(=O)c2ccc3ncsc3c2)cc1` was 12.4%; that for `O=C1CC(c2ccc(Cl)cc2)CC(=O)C1CS(=O)(=O)c1ccccc1` (centres unmarked) was 11.4%; that for `Cc1sc2nc(SCC(=O)NCc3cccs3)[nH]c(=O)c2c1C` was 10.8%.
In the case of `COc1cccc(CC(NC(C)=O)C(=O)NC2CCN(S(=O)(=O)c3ccc4ccccc4c3)CC2)c1` (centres unmarked), the “hERG current change (%, negative = inhibition) at 1uM” value was found to be 8.45%.
With `CC(=O)NCCc1nc2cc(NC(=O)Nc3ccccc3)ccc2n1C`, the “hERG current change (%, negative = inhibition) at 1uM” value was -20.3%.
Regarding `CC(C)c1nnc(NC(=O)COc2ccc3c(c2)OCO3)s1`, the “hERG current change (%, negative = inhibition) at 1uM” value was 17.9%.
Consider `COC(=O)C1=C(C)N(C)C(=O)NC1c1c(OC)ccc2ccccc12` (centres unmarked), for which the “hERG current change (%, negative = inhibition) at 1uM” value is on record as 13.3%.
In the case of `CN(c1ccccc1)S(=O)(=O)c1ccc2[nH]c(=O)oc2c1`, the “hERG current change (%, negative = inhibition) at 1uM” value was found to be 19.7%.
Consider `O=C(c1cc2ccccc2oc1=O)N(Cc1cccs1)C1CCS(=O)(=O)C1` (centres unmarked), for which the “hERG current change (%, negative = inhibition) at 1uM” value stood at 9.9%.
`Cc1cc(C(=O)NC2CCCc3ccccc32)c(C)o1` (centres unmarked): the “hERG current change (%, negative = inhibition) at 1uM” value came to 6.33%.
Regarding `Cc1cc(C)c(OCCN2C(=O)NC(C)(C)C2=O)c(Cl)c1`, the “hERG current change (%, negative = inhibition) at 1uM” value was 14.8%.
Turning to `O=C(CCCCCNc1nc(=S)[nH]c2ccccc12)NCCc1ccccc1`, the “hERG current change (%, negative = inhibition) at 1uM” value is on record as 3.87%.
Consider `CC(C)c1ccc(NC(=O)c2ccccc2NC(=O)C2CC=CCC2C(=O)O)cc1` (centres unmarked), for which the “hERG current change (%, negative = inhibition) at 1uM” value worked out at 9.12%.
Turning to `CCCC(=O)NNC(=O)c1ccoc1C`, the “hERG current change (%, negative = inhibition) at 1uM” value amounted to 6.13%.
Regarding `COc1cccc(-c2cc(C(=O)NCCc3ccccc3)no2)c1`, the “hERG current change (%, negative = inhibition) at 1uM” value worked out at 13.8%.
For the molecule `CCc1noc(C)c1C(=O)NC1CCCc2c1cnn2-c1cc(C)cc(C)c1` (centres unmarked), the “hERG current change (%, negative = inhibition) at 1uM” value worked out at 11.1%.
The value for `CCN(Cc1ccncc1)C(=O)CSc1ccc2ccccc2c1` was 3.12%; that for `CCCCCC(=O)NNC(=S)NC(=O)c1ccc([N+](=O)[O-])cc1` was 2.2%.
As for `CC(C)CCNC(=O)CCn1c(=S)oc2ccccc21`, the “hERG current change (%, negative = inhibition) at 1uM” value is reported as 4.63%.
The value for `COC(=O)Cc1cc(=O)[nH]c(/N=C(\N)Nc2ccc(C(C)C)cc2)n1` was 10.9%.
`C=CCN1C(=NC(=O)COc2ccc(Cl)cc2)SC2CS(=O)(=O)CC21` (centres unmarked): the “hERG current change (%, negative = inhibition) at 1uM” value turned out to be 5.94%.
Consider `C=CCOC(=O)C1=C[C@@H](c2ccc(C(F)(F)F)cc2)C[C@@H](OCCCCO)O1`, for which the “hERG current change (%, negative = inhibition) at 1uM” value was found to be 6.52%.
Regarding `Cc1ccc(S(=O)(=O)N/N=C\c2ccccc2OCc2ccccc2)cc1`, the “hERG current change (%, negative = inhibition) at 1uM” value was found to be 18.4%.
With `CC(C)(C)NC(=O)Nc1ccc2nccnc2c1`, the “hERG current change (%, negative = inhibition) at 1uM” value is recorded as 1.63%.
On to `O=C/C=C/c1c(-c2ccccc2)cc2oc3ccccc3cc1-2`, for which the “hERG current change (%, negative = inhibition) at 1uM” value is 11.7%.
With `Cc1ccc(CNC(=O)Cc2ccc(NC3=NC4CS(=O)(=O)CC4S3)cc2)cc1` (centres unmarked), the “hERG current change (%, negative = inhibition) at 1uM” value was 10.3%.
On to `COc1ccc(C2CC(c3cccs3)=NN2C(=O)CCC(=O)O)cc1OC` (centres unmarked), for which the “hERG current change (%, negative = inhibition) at 1uM” value is 4.43%.
In the case of `CC(C)Oc1ccc(CNC2CCOC(C)(C)C2)cc1` (centres unmarked), the “hERG current change (%, negative = inhibition) at 1uM” value is recorded as 15.6%.
On to `CCOc1ccccc1N(C(=O)CNC(=O)c1ccco1)C(C(=O)NC1CCCC1)c1ccncc1` (centres unmarked), for which the “hERG current change (%, negative = inhibition) at 1uM” value turned out to be 12.1%.
As for `CCOc1ccc2nc(N/C(N)=N/C(=S)Nc3ccc(C)c(C)c3)nc(C)c2c1`, the “hERG current change (%, negative = inhibition) at 1uM” value worked out at 6.79%.
Regarding `Cc1ccc(S(=O)(=O)N2CCC(C(=O)NCCc3ccccc3)CC2)cc1`, the “hERG current change (%, negative = inhibition) at 1uM” value was 0.622%.
Then `NC(=O)[C@@H]1CCCN1Cc1nc(Cc2cccc(C(F)(F)F)c2)no1`, with 7.55%; and `N#CCSc1nnc(CNc2ccc(F)cc2)o1`, with 6.74%; and `CC(C)c1ccc(Nc2cnn(C34CC5CC(CC(CC(=O)O)(C5)C3)C4)c(=O)c2Cl)cc1`, with 7.89%.
With `Cc1noc(C)c1CSc1ccccc1C(=O)N1CCN(c2ccccc2)CC1`, the “hERG current change (%, negative = inhibition) at 1uM” value was 9.21%.
For `CCn1c(-c2nn(-c3ccccc3)ccc2=O)n[nH]c1=S`, the “hERG current change (%, negative = inhibition) at 1uM” value stood at 9.34%.
On to `Cn1c2ccccc2c(=O)c2ccc(C#CC3(N)CCCCC3)cc21`, for which the “hERG current change (%, negative = inhibition) at 1uM” value is recorded as 0.0403%.
`Cc1ccc(SCCC(=O)N(C)C)cc1`: the “hERG current change (%, negative = inhibition) at 1uM” value came out at 2.1%.
In the case of `Cc1cc(C(=O)N2CCCC(C(=O)c3cccc4ccccc34)C2)nc(C)n1` (centres unmarked), the “hERG current change (%, negative = inhibition) at 1uM” value is on record as 12.6%.
As to `CCc1nc(SCC(=O)Nc2nccs2)c2oc3ccccc3c2n1`, the “hERG current change (%, negative = inhibition) at 1uM” value was determined as 11.8%.
Then `CC(=O)NC1=NN(C(C)=O)C(c2ccccn2)S1` (centres unmarked), with 3.87%.
Turning to `CCCc1noc2c1/C(=N\O)CC(CC(C)SCC)C2` (centres unmarked), the “hERG current change (%, negative = inhibition) at 1uM” value came out at 9.48%.
Then `CCCn1c(=N)n(CC(O)COc2ccc(C)cc2)c2ccccc21.Cl` (centres unmarked), with -68%.
